Some of the results follow. At the low end of the ranking, values are background and their order means little.
The sequences below were run against GST-SBP-SLBP (stem-loop binding protein) (UniProt Q14493) (assay: targeted RNA Bind-n-Seq). Conditions: RBNS binding buffer: 25 mM Tris pH 7.5, 150 mM KCl, 3 mM MgCl2, 0.1% Tween, 0.5 mg/mL BSA, 1 mM DTT; 27 nM protein, 750 pM RNA pool; temperature not stated; high values mean tight binding.
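Note: DESeq read counts versus GST-SBP nonspecific binding control pulldown.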

Sequence	binding signal (log2 fold change)
GGUCACGUCUCAAUCAACUCAUCUUCAGGAGUUUUCUCCUGCUAUUUCAACAGCUCGCAGUCAAG	0.0467
GGUCACGUCUCAAUCAACUCUUUUUCAGGAGUUUUCUCCUGUUAUUUCAACAGCUCGCAGUCAAG	-0.167
GGUCACGUCUCAAUCAACUCAACUCCCAGGGAAAGCCCUGGUUUAUUCAACAGCUCGCAGUCAAG	0.0251
GGUCACGUCUCAAUCAACUCUAUCGAGGGGGGGAAAACCCCUUUACCCUCACCAUCAACAGCUCGCAGUCAAG	-0.0576
GGUCACGUCUCAAUCAACUCAACUCCAGGAGUUUUCUCCUGCUUACUCAACAGCUCGCAGUCAAG	-0.118
GGUCACGUCUCAAUCAACUCAAUUCCCAGGGAAAACCCUGGCAUUCUCAACAGCUCGCAGUCAAG	0.249
GGUCACGUCUCAAUCAACUCAAUCUCAGGAGUUUGCUCCUGCAUUCUCAACAGCUCGCAGUCAAG	0.0833
GGUCACGUCUCAAUCAACUCCCCAGAGGGGGGGAAAACCCCUUUGCCCUCACUAUCAACAGCUCGCAGUCAAG	-1.41e-05
GGUCACGUCUCAAUCAACUCUUCUCCAGGAGUUUCCUCCUGCAAAUUCAACAGCUCGCAGUCAAG	-0.0732
GGUCACGUCUCAAUCAACUCUUCGUCCAGGGAAAACCCUGGUAAAUUCAACAGCUCGCAGUCAAG	-0.134
GGUCACGUCUCAAUCAACUCAUUUUCCAGGGAAACCCCUGGCUUAUUCAACAGCUCGCAGUCAAG	-0.0481
GGUCACGUCUCAAUCAACUCCCUCGAGGGGGGGAAAACCCCUUUACCCUCACAUUCAACAGCUCGCAGUCAAG	-0.22
GGUCACGUCUCAAUCAACUCUUCUUCCAGGGAAAGCCCUGGUAAAUUCAACAGCUCGCAGUCAAG	-0.0184
GGUCACGUCUCAAUCAACUCAACGCCAGGAGUUUCCUCCUGUUAUUUCAACAGCUCGCAGUCAAG	0.0113
GGUCACGUCUCAAUCAACUCAUUCUCCAGGGAAAACCCUGGUAAACUCAACAGCUCGCAGUCAAG	-0.00388
GGUCACGUCUCAAUCAACUCAUUCCCAGGAGUUUCCUCCUGUAUUUUCAACAGCUCGCAGUCAAG	-0.089
GGUCACGUCUCAAUCAACUCCCCAGAGGGGGGGAAAACCCCUUUGCCCUCCAUAUCAACAGCUCGCAGUCAAG	-0.0471
GGUCACGUCUCAAUCAACUCUAUCCCCAGGGAAAACCCUGGCUUACUCAACAGCUCGCAGUCAAG	0.16
GGUCACGUCUCAAUCAACUCUUUUCCAGGAGUUUUCUCCUGUUAUCUCAACAGCUCGCAGUCAAG	0.024
GGUCACGUCUCAAUCAACUCCUAAGAGGGGGGGAAAACCCCUUUGCCCUCGAAUUCAACAGCUCGCAGUCAAG	0.0882
GGUCACGUCUCAAUCAACUCCUAAGAGGGGGGGAAAACCCCUUUACCCUCAAAAUCAACAGCUCGCAGUCAAG	-0.628
GGUCACGUCUCAAUCAACUCUACUCCCAGGGAAACCCCUGGCUAUUUCAACAGCUCGCAGUCAAG	0.0213
GGUCACGUCUCAAUCAACUCUUCUUCCAGGGAAAGCCCUGGUUAAUUCAACAGCUCGCAGUCAAG	0.0263
GGUCACGUCUCAAUCAACUCUUCUUCAGGAGUUUCCUCCUGUAAUGUCAACAGCUCGCAGUCAAG	0.163

Sequence	binding signal (log2 fold change)
GGUCACGUCUCAAUCAACUCUCCAGAGGGGGGGAAAACCCCUUUACCCUCACAUUCAACAGCUCGCAGUCAAG	0.328
GGUCACGUCUCAAUCAACUCUUUAGAGGGGGGGAAAACCCCUUUACCCUCAACAUCAACAGCUCGCAGUCAAG	-0.49
GGUCACGUCUCAAUCAACUCAUUUUCAGGAGUUUCCUCCUGCAUUCUCAACAGCUCGCAGUCAAG	0.165
GGUCACGUCUCAAUCAACUCUUUCUCCAGGGAAAUCCCUGGUUUUUUCAACAGCUCGCAGUCAAG	-0.0354
GGUCACGUCUCAAUCAACUCUACUUCCAGGGAAAGCCCUGGCAUUCUCAACAGCUCGCAGUCAAG	0.122
GGUCACGUCUCAAUCAACUCUACUUCCAGGGAAACCCCUGGCAAUUUCAACAGCUCGCAGUCAAG	0.263
GGUCACGUCUCAAUCAACUCUCUAGAGGGGGGGAAAACCCCUUUGCCCUCAUUUUCAACAGCUCGCAGUCAAG	0.0988
GGUCACGUCUCAAUCAACUCUUCCCCAGGAGUUUACUCCUGCAUACUCAACAGCUCGCAGUCAAG	-0.0381
GGUCACGUCUCAAUCAACUCUAUUCCAGGAGUUUUCUCCUGUUAUUUCAACAGCUCGCAGUCAAG	-0.128
GGUCACGUCUCAAUCAACUCCACGGAGGGGGGGAAAACCCCUUUACCCUCACAUUCAACAGCUCGCAGUCAAG	-0.41
GGUCACGUCUCAAUCAACUCUAUCGAGGGGGGGAAAACCCCUUUACCCUCUCAUUCAACAGCUCGCAGUCAAG	0.0063
GGUCACGUCUCAAUCAACUCUAUCCCAGGAGUUUUCUCCUGUAAACUCAACAGCUCGCAGUCAAG	0.0127
GGUCACGUCUCAAUCAACUCCUUAGAGGGGGGGAAAACCCCUUUGCCCUCACCGUCAACAGCUCGCAGUCAAG	0.412
GGUCACGUCUCAAUCAACUCAAACGAGGGGGGGAAAACCCCUUUACCCUCAUCCUCAACAGCUCGCAGUCAAG	-0.0438
GGUCACGUCUCAAUCAACUCAAUUCCAGGAGUUUACUCCUGCAUAUUCAACAGCUCGCAGUCAAG	0.0244
GGUCACGUCUCAAUCAACUCAAUAGAGGGGGGGAAAACCCCUUUACCCUCGGAAUCAACAGCUCGCAGUCAAG	-0.296
GGUCACGUCUCAAUCAACUCCCAAGAGGGGGGGAAAACCCCUUUACCCUCCCAAUCAACAGCUCGCAGUCAAG	-0.13
GGUCACGUCUCAAUCAACUCUAUUCCAGGAGUUUACUCCUGUUUAUUCAACAGCUCGCAGUCAAG	-0.188
GGUCACGUCUCAAUCAACUCUUCCCCCAGGGAAAUCCCUGGCUAUUUCAACAGCUCGCAGUCAAG	0.0403
GGUCACGUCUCAAUCAACUCAACUCCAGGAGUUUCCUCCUGCUUUCUCAACAGCUCGCAGUCAAG	0.00153
GGUCACGUCUCAAUCAACUCUAUGGCAGGAGUUUACUCCUGGAUAUUCAACAGCUCGCAGUCAAG	-0.182
GGUCACGUCUCAAUCAACUCGUUUUCAGGAGUUUACUCCUGUUUUUUCAACAGCUCGCAGUCAAG	-0.174
GGUCACGUCUCAAUCAACUCAUUCCCAGGAGUUUACUCCUGUUUUUUCAACAGCUCGCAGUCAAG	0.00676

Reference: article PMC5892938
